# Experimental data published in the supplement of paper PMC8183993.
# Structures can show the parent of a compound that is named as a salt. ± gives the standard deviation of the averaged measurements. Whole data set: some 3,100 compounds, median “mean cytoplasmic OPP incorporation (global translation) relative to DMSO” near 100, cut for the lowest 2% near 56. Some of the results follow.
# System: U2OS
# Assay: mean cytoplasmic OPP incorporation (global translation) relative to DMSO (% of DMSO); higher = more protein synthesis
# Settings: 10 µM; 24 h
# Protocol: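 Primary image-based screen in U2OS cells: compounds at 10 uM for 24 h, then a 1 h o-propargyl-puromycin (OPP) pulse, click labelling, and high-throughput microscopy. Mean cytoplasmic OPP intensity and nuclei count were normalised to DMSO wells within each plate (DMSO = 100) and averaged over triplicate plates.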
row,Compound,mean cytoplasmic OPP incorporation
1,CCOc1ccn(-c2ccc(F)cc2)c(=O)c1C(=O)Nc1ccc(Oc2ccnc(N)c2Cl)c(F)c1,104
2,[Cl-].[Li+] [Lithium Chloride],105
3,Cc1nc(Nc2n[nH]c3c2CN(C(=O)N[C@H](CN(C)C)c2ccccc2)C3(C)C)c2sccc2n1,45.5
4,CCCCCCN(CCCCCC)C(=O)Cc1c(-c2ccc(F)cc2)[nH]c2ccccc12,109
5,N#C[C@@H]1CCCN1C(=O)CNC12CC3CC(CC(O)(C3)C1)C2 [Vildagliptin (LAF-237)],102
6,CC(C)C[C@H](NC(=O)CNC(=O)c1cc(Cl)ccc1Cl)B(O)O,64.4
7,O=C(O[C@@H]1Cc2c(O)cc(O)cc2O[C@@H]1c1cc(O)c(O)c(O)c1)c1cc(O)c(O)c(O)c1 [Epigallocatechin gallate],103 ± 8.2
8,Nc1ccc(S(=O)(=O)NC(=O)c2ccccc2)cc1 [Sulfabenzamide],106
9,C=C(CC)C(=O)c1ccc(OCC(=O)O)c(Cl)c1Cl [Ethacrynic acid],103
10,CCCC[P+](CCCC)(CCCC)Cc1ccc(NC(=O)C(Cc2ccc3ccccc3c2)NC(=NC2CCCCC2)NC2CCCCC2)cc1 (stereo unspecified),94.7
11,CCCCCCCCCCCCCCCC(=O)O[C@H](CC(=O)O)C[N+](C)(C)C (racemic) [(±)-Palmitoylcarnitine chloride],104
12,CCN(CC)CCCC(C)Nc1ccnc2cc(Cl)ccc12 (stereo unspecified) [Chloroquine],107
13,CCN(CC)CCCC(C)Nc1ccnc2cc(Cl)ccc12 (stereo unspecified) [Chloroquine diphosphate],105
14,CS(=O)(=O)c1ccc([C@@H](O)[C@@H](CF)NC(=O)C(Cl)Cl)cc1 [Florfenicol],99.5
15,O=C(O)Cn1c(C(=O)Nc2nc(-c3ccccc3Cl)cs2)cc2ccccc21,98
16,CCNC(=O)[C@H]1O[C@@H](n2cnc3c(N)nc(NCCc4ccc(CCC(=O)O)cc4)nc32)[C@H](O)[C@@H]1O,104
17,O=C(COc1cccc2c(=O)[nH]ccc12)c1ccccc1,85.4
18,C[C@@H](O)[C@H]1C(=O)N2C(C(=O)O)=C(SCCNC=N)C[C@H]12 [Imipenem],80.8
19,CC[C@]12C=CCN3CC[C@@]4(c5cc([C@@]6(C(=O)OC)C[C@@H]7C[C@@H](C(C)(F)F)CN(Cc8c6[nH]c6ccccc86)C7)c(OC)cc5N(C)[C@H]4[C@@](O)(C(=O)OC)[C@@H]1OC(C)=O)[C@@H]32 [Vinflunine Tartrate],123
20,c1ccc2c(c1)CCCC2C1=NCCN1 (stereo unspecified) [Tetrahydrozoline hydrochloride],104
21,CC(C)(C)C(=O)OCOC(=O)[C@@H]1N2C(=O)[C@@H](/N=C/N3CCCCCC3)[C@H]2SC1(C)C [Pivmecillinam hydrochloride],103
22,O=C(c1ccc(F)cc1)C1CCN(CCCCc2ccccc2)CC1 [4-(4-Fluorobenzoyl)-1-(4-phenylbutyl)-piperidine oxalate],103
23,"OCC(O)CN1CCN(c2ccccc2)CC1 (racemic) [Dropropizine (R,S)]",99.2
24,CNc1ncnc2c1ncn2[C@@H]1O[C@H](CO)[C@@H](O)[C@H]1O [N6-methyladenosine],111
25,CC(C)OC(=O)C(C(=O)OC(C)C)=C1SC=CS1 [Malotilate],98.1
26,O=C(O)C1=C[C@@H](O)[C@@H](O)[C@H](O)C1 [Shikimic acid (Shikimate)],97.7

row,Compound,mean cytoplasmic OPP incorporation
1,C1N2CN3CN1CN(C2)C3 [Methenamine],104
2,C[Se]CC[C@H](N)C(=O)O [Selenomethionine],103
3,O=C1NCCN1c1ncc([N+](=O)[O-])s1 [Niridazole],94.7
4,CCCCCN(C)CCC(O)(P(=O)(O)O)P(=O)(O)O [Ibandronate sodium],90.9 ± 2.9
5,CN=c1nc(-c2ccccc2)n(-c2ccccc2)s1,105
6,C[C@H](NCc1ccc(OCc2cccc(F)c2)cc1)C(N)=O,100
7,CCn1cc(C(=O)O)c(=O)c2cc(F)c(N3CCNCC3)nc21 [Enoxacin],102
8,CC(=O)OCC(=O)NCCCOc1cccc(CN2CCCCC2)c1 [Roxatidine Acetate HCl],94.4
9,OC[C@@H](O)[C@@H](O)[C@H](O)[C@H](O)CO [D-Mannitol (Osmitrol)],97.4
10,C=CCc1ccc(O)c(OC)c1 [Eugenol],109
11,NCC1CCC(C(=O)N[C@@H](Cc2ccccc2)C(=O)Nc2ccc(CC(=O)O)cc2)CC1 (stereo partly specified),97.5
12,CC(C(=O)O)c1cccc(Oc2ccccc2)c1 (stereo unspecified) [Fenoprofen calcium hydrate],105
13,CC(C(=O)O)c1cccc(Oc2ccccc2)c1 (stereo unspecified) [Fenoprofen calcium salt dihydrate],103
14,Oc1ccc(C2CNCCc3c2cc(O)c(O)c3Cl)cc1 (stereo unspecified) [Fenoldopam hydrochloride],101
15,CN1Cc2c(C(=O)OC(C)(C)C)ncn2-c2ccsc2C1=O,114
16,N#C/C(=C\c1ccc(O)c(O)c1)C(=O)Nc1ccccc1,90.9
17,CNc1cc2c(Nc3cccc(Br)c3)ncnc2cn1,91.2
18,OC[C@H]1OC(O)[C@H](O)[C@@H](O)[C@@H]1O (stereo partly drawn) [Dextrose (D-glucose)],101
19,O=C1NC(=O)C(c2ccccc2[N+](=O)[O-])=C1Nc1ccc(O)c(Cl)c1,97.4 ± 0.18
20,O=C1NC(=O)/C(=C/c2ccc3nccc(-c4ccncc4)c3c2)S1,90.1
21,CCCc1ncc(C[n+]2ccccc2C)c(N)n1 [Amprolium hydrochloride],104
22,CC(Oc1ccc(O)cc1)(P(=O)(O)O)P(=O)(O)O,100 ± 3.4
23,CCCSc1ccc2[nH]c(NC(=O)OC)nc2c1 [Albendazole],78.4
24,CCCSc1ccc2[nH]c(NC(=O)OC)nc2c1 [Albendazole (Albenza)],85.4
25,Cc1c(Cl)cccc1Nc1ccccc1C(=O)O [Tolfenamic acid],100
26,CN(C)CCC1(c2ccc(Cl)cc2)Cc2ccccc2C(=O)O1 (racemic) [(±)-AC 7954 hydrochloride],102

row,Compound,mean cytoplasmic OPP incorporation
1,"CO[C@H]1/C=C/O[C@@]2(C)Oc3c(C)c(O)c4c(O)c(c(/C=N/N5CCN(C)CC5)c(O)c4c3C2=O)NC(=O)/C(C)=C\C=C\[C@H](C)[C@H](O)[C@@H](C)[C@@H](O)[C@@H](C)[C@H](OC(C)=O)[C@@H]1C [Rifampin (Rifadin, Rimactane)]",109
2,CO[C@H]1/C=C/O[C@@]2(C)Oc3c(C)c(O)c4c(O)c(c(/C=N/N5CCN(C)CC5)c(O)c4c3C2=O)NC(=O)/C(C)=C\C=C\[C@H](C)[C@H](O)[C@@H](C)[C@@H](O)[C@@H](C)[C@H](OC(C)=O)[C@@H]1C [Rifampicin],107.5 ± 0.81
3,COc1cc(F)c(C(C)C)cc1-c1ccc(C(F)(F)F)cc1CN1C(=O)O[C@H](c2cc(C(F)(F)F)cc(C(F)(F)F)c2)[C@@H]1C [Anacetrapib (MK-0859)],111
4,CC(C)(C)c1ccc(/C=C/C(=O)Nc2ccc3c(c2)OCCO3)cc1,112
5,CCc1ccc(CCOc2ccc(CC3SC(=O)NC3=O)cc2)nc1 (stereo unspecified) [Pioglitazone],102.8 ± 0.67
6,O=C(CCCCCCC(=O)Nc1cccnc1)NO [Pyroxamide],65.9
7,Cc1ccc(S(=O)(=O)C=CC#N)cc1,65.3
8,Cc1ccc(N(CC2=NCCN2)c2cccc(O)c2)cc1 [Phentolamine HCl],95.5
9,Cc1ccc(N(CC2=NCCN2)c2cccc(O)c2)cc1 [Phentolamine hydrochloride],95.1
10,O=C1c2ccccc2C(=O)C1c1ccccc1 [Phenindione],105
11,O=C(c1cc(Cc2n[nH]c(=O)c3ccccc23)ccc1F)N1CCN(C(=O)C2CC2)CC1 [Olaparib],101
12,O=C(c1cc(Cc2n[nH]c(=O)c3ccccc23)ccc1F)N1CCN(C(=O)C2CC2)CC1 [Olaparib (AZD2281)],96.1
13,CC(C)[C@@H](C)/C=C/[C@@H](C)[C@H]1CC[C@H]2C3=CC=C4C[C@@H](O)CC[C@]4(C)[C@H]3CC[C@]12C [Ergosterol],123
14,Clc1ccc2c(c1)C(N1CCNCC1)=Nc1ccccc1O2 [Amoxapine],98.3
15,O=C(O)CCc1nc(-c2ccccc2)c(-c2ccccc2)o1 [Oxaprozin],98.8
16,CCCCCCCCOC(=O)/C=C/c1ccc(O)c(O)c1 [n-Octyl caffeate],88.9
17,OCCN1CCN(CCCN2c3ccccc3Sc3ccc(C(F)(F)F)cc32)CC1 [Fluphenazine dihydrochloride],114
18,CC(C)(Oc1ccc(CCNC(=O)c2ccc(Cl)cc2)cc1)C(=O)O [Bezafibrate],95.3
19,c1ccc(CC2=NCCN2)cc1 [Tolazoline hydrochloride],103
20,CC[C@H]1OC(=O)[C@H](C)[C@@H](O[C@H]2C[C@@](C)(OC)[C@@H](O)[C@H](C)O2)[C@H](C)[C@@H](O[C@@H]2O[C@H](C)C[C@H](N(C)C)[C@H]2O)[C@](C)(O)C[C@@H](C)C(=O)[C@H](C)[C@@H](O)[C@]1(C)O [Erythromycin],109
21,CC[C@H]1OC(=O)[C@H](C)[C@@H](O[C@H]2C[C@@](C)(OC)[C@@H](O)[C@H](C)O2)[C@H](C)[C@@H](O[C@@H]2O[C@H](C)C[C@H](N(C)C)[C@H]2O)[C@](C)(O)C[C@@H](C)C(=O)[C@H](C)[C@@H](O)[C@]1(C)O [Erythromycin (E-Mycin)],101
22,CCOC(=O)N1CCC(=C2c3ccc(Cl)cc3CCc3cccnc32)CC1 [Loratadine],115
23,CCOC(=O)N1CCC(=C2c3ccc(Cl)cc3CCc3cccnc32)CC1 [Loratidine],102
24,CC(C)Cc1ccc(C(C)C(=O)NO)cc1 (stereo unspecified) [Ibuproxam],99.7
